In the supplement of paper PMC4604168 (melanoma cell lines) one finds cell count data, which are given here for 23 compounds.

Among the test systems are WM115; WM1716; WM1745; WM3526; WM3619; WM451Lu.
What all share (assay): cell count relative to DMSO control; melanoma cells; higher = more viable cells
Holding throughout (details): library dose: low library concentration; 72 h

The list shows a part of the results. Repeats are few or missing, and single values can be far off.
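Note: cell number obtained by counting DAPI-stained nuclei in high-throughput microscope images with image analysis software, screen run in 1,536-well plates.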

`CN1CCN(c2ccc3nc(-c4c(N)c5c(F)cccc5[nH]c4=O)[nH]c3c2)CC1` [Dovitinib] + COc1cc(Nc2ncc(F)c(Nc3ccc4c(n3)NC(=O)C(C)(C)O4)n2)cc(OC)c1OC [Tamatinib] (first compound 0.1 µM, partner dose 0.4 µM): the cell count with WM115 worked out at 93.4%; in the assay on WM1716, 90.8%; with WM1745, 65.1%; in the assay with WM3526, 89.5%; with WM3619 it was 92.2%; in the assay on WM451Lu it was 118%.

On to `CS(=O)(=O)CCNCc1ccc(-c2ccc3ncnc(Nc4ccc(OCc5cccc(F)c5)c(Cl)c4)c3c2)o1` [lapatinib] + O=C1NC(=O)/C(=C/c2ccc(-c3ccc(F)cc3O)o2)S1 [AS252424] (first compound 0.8 µM, partner dose 1 µM), for which the cell count is 91.5% with WM115; 104% in the assay with WM1716; 113% in the assay on WM1745; 84.4% with WM3526; 84.7% with WM3619; 60.4% in the assay on WM451Lu.

On to `CN1CCN(c2ccc3nc(-c4c(N)c5c(F)cccc5[nH]c4=O)[nH]c3c2)CC1` [Dovitinib] + CC(C)CCN1c2nc(Nc3cc(F)c(O)c(F)c3)ncc2N(C)C(=O)C1C [BID1870] (first compound 0.1 µM, partner dose 0.2 µM), for which the cell count in the assay with WM115 was 82.7%; with WM1716, 100%; in the assay on WM1745, 81.4%; in the assay with WM3526, 95.1%; in the assay on WM3619 it was 102%; in the assay with WM451Lu, 67%.

In the case of `CS(=O)(=O)CCNCc1ccc(-c2ccc3ncnc(Nc4ccc(OCc5cccc(F)c5)c(Cl)c4)c3c2)o1` [lapatinib] + O=C(Nc1ccccc1)c1cc([N+](=O)[O-])ccc1Cl [GW9662] (first compound 0.8 µM, partner dose 2 µM), the cell count in the assay on WM115 stood at 110%; with WM1716 it was 102%; in the assay with WM1745, 82.6%; with WM3526, 114%; with WM3619, 102%; in the assay with WM451Lu, 93.9%.

On to `C=CCNC1=C2C[C@@H](C)C[C@H](OC)[C@H](O)[C@@H](C)/C=C(\C)[C@H](OC(N)=O)[C@@H](OC)/C=C\C=C(/C)C(=O)NC(=CC1=O)C2=O` [Tanespimycin] + COc1cc(N2CCC(N3CCN(C)CC3)CC2)ccc1Nc1ncc(Cl)c(Nc2ccccc2S(=O)(=O)C(C)C)n1 [NVP-TAE684] (first compound 0.002 µM, partner dose 0.08 µM), for which the cell count in the assay on WM115 is 84.5%; with WM1716, 99.7%; with WM1745, 90.4%; in the assay with WM3526 it was 92.4%; in the assay on WM3619, 87.9%; in the assay with WM451Lu, 89.7%.

Consider `CNC(=O)c1cc(Oc2ccc(NC(=O)Nc3ccc(Cl)c(C(F)(F)F)c3)cc2)ccn1` [sorafenib] + CCN(CC)CCCCNc1ncc2cc(-c3cc(OC)cc(OC)c3)c(NC(=O)NC(C)(C)C)nc2n1 [PD173074] (first compound 0.4 µM, partner dose 0.1 µM), for which the cell count in the assay on WM115 is 100%; with WM1716, 86.9%; in the assay with WM1745, 99.5%; in the assay with WM3526, 107%; in the assay with WM3619, 88.4%; in the assay with WM451Lu, 117%.

With `CS(=O)(=O)CCNCc1ccc(-c2ccc3ncnc(Nc4ccc(OCc5cccc(F)c5)c(Cl)c4)c3c2)o1` [lapatinib] + CO[C@@H]1[C@H](N(C)C(=O)c2ccccc2)C[C@H]2O[C@]1(C)n1c3ccccc3c3c4c(c5c6ccccc6n2c5c31)C(=O)NC4 [Midostaurin] (first compound 0.8 µM, partner dose 0.08 µM), the cell count in the assay on WM115 is 70.8%; in the assay with WM1716 it was 67.6%; in the assay with WM1745, 48%; in the assay with WM3526 it was 101%; with WM3619, 99.9%; with WM451Lu, 116%.

As to `CNC(=O)c1cc(Oc2ccc(NC(=O)Nc3ccc(Cl)c(C(F)(F)F)c3)cc2)ccn1` [sorafenib] + O=C(O)c1ccc(-c2c[nH]c3ncc(-c4ccccc4)cc23)cc1C1CCCC1 [GSK650394] (first compound 0.4 µM, partner dose 0.16 µM), the cell count was determined as 97.5% in the assay with WM115; 93.8% with WM1716; 106% in the assay on WM1745; 107% in the assay with WM3526; 110% in the assay with WM3619; 96.4% with WM451Lu.

For the compound `CS(=O)(=O)CCNCc1ccc(-c2ccc3ncnc(Nc4ccc(OCc5cccc(F)c5)c(Cl)c4)c3c2)o1` [lapatinib] + O=C(O)c1ccc(-c2c[nH]c3ncc(-c4ccccc4)cc23)cc1C1CCCC1 [GSK650394] (first compound 0.8 µM, partner dose 0.16 µM), the cell count with WM115 is 114%; with WM1716, 108%; with WM1745 it was 111%; in the assay with WM3526, 92.1%; in the assay on WM3619, 121%; with WM451Lu, 86.6%.

As for `CN1CCN(c2ccc3nc(-c4c(N)c5c(F)cccc5[nH]c4=O)[nH]c3c2)CC1` [Dovitinib] + COc1cc2ncnc(Nc3ccc(Oc4ccccc4)cc3)c2cc1OC [SrcI1] (first compound 0.1 µM, partner dose 2 µM), the cell count was found to be 100% in the assay on WM115; 129% in the assay on WM1716; 94.4% in the assay on WM1745; 98.7% with WM3526; 128% in the assay with WM3619; 101% in the assay with WM451Lu.

Consider `CNC(=O)c1cc(Oc2ccc(NC(=O)Nc3ccc(Cl)c(C(F)(F)F)c3)cc2)ccn1` [sorafenib] + Cc1cc(N2CCOCC2)cc2[nH]c(-c3c(NC[C@@H](O)c4cccc(Cl)c4)cc[nH]c3=O)nc12 [BMS536924] (first compound 0.4 µM, partner dose 0.2 µM), for which the cell count in the assay with WM115 stood at 115%; with WM1716, 100%; in the assay on WM1745, 78%; in the assay on WM3526, 97%; in the assay with WM3619, 85.8%; with WM451Lu, 107%.

With `CNC(=O)c1cc(Oc2ccc(NC(=O)Nc3ccc(Cl)c(C(F)(F)F)c3)cc2)ccn1` [sorafenib] + O=C(Nc1cccc(Cl)c1)Nc1ncc(CCNc2ncnc3ccsc23)s1 [SNS314] (first compound 0.4 µM, partner dose 0.0008 µM), the cell count turned out to be 66.7% in the assay on WM115; 89.6% in the assay on WM1716; 89.9% in the assay on WM1745; 99% in the assay with WM3526; 97.7% in the assay on WM3619; 90.7% in the assay on WM451Lu.

For `C=CCNC1=C2C[C@@H](C)C[C@H](OC)[C@H](O)[C@@H](C)/C=C(\C)[C@H](OC(N)=O)[C@@H](OC)/C=C\C=C(/C)C(=O)NC(=CC1=O)C2=O` [Tanespimycin] + Cn1cncc1[C@@](N)(c1ccc(Cl)cc1)c1ccc2c(c1)c(-c1cccc(Cl)c1)cc(=O)n2C [tipifarnib] (first compound 0.002 µM, partner dose 0.01 µM), the cell count with WM115 came out at 76.1%; in the assay with WM1716, 70.7%; in the assay with WM1745, 85.6%; with WM3526, 86.6%; in the assay with WM3619, 94.2%; in the assay on WM451Lu it was 84.3%.

Take `CN1CCN(c2ccc3nc(-c4c(N)c5c(F)cccc5[nH]c4=O)[nH]c3c2)CC1` [Dovitinib] + CO[C@@H]1[C@H](N(C)C(=O)c2ccccc2)C[C@H]2O[C@]1(C)n1c3ccccc3c3c4c(c5c6ccccc6n2c5c31)C(=O)NC4 [Midostaurin] (first compound 0.1 µM, partner dose 0.08 µM): the cell count with WM115 worked out at 89.3%; in the assay on WM1716, 98.1%; in the assay with WM1745, 86.2%; with WM3526, 93.8%; in the assay with WM3619, 118%; with WM451Lu, 89.3%.

With `CNC(=O)c1cc(Oc2ccc(NC(=O)Nc3ccc(Cl)c(C(F)(F)F)c3)cc2)ccn1` [sorafenib] + COc1ccc2c(c1)CCC1C2CCC2(C)C(NCCCCCCN3C(=O)C=CC3=O)CCC12 [U73122] (first compound 0.4 µM, partner dose 0.4 µM), the cell count with WM115 stood at 91.4%; in the assay on WM1716, 76.1%; in the assay on WM1745, 104%; with WM3526, 97.4%; with WM3619 it was 85.6%; with WM451Lu it was 101%.

Consider `C[C@@H](Oc1cc(-c2cnn(C3CCNCC3)c2)cnc1N)c1c(Cl)ccc(F)c1Cl` [Crizotinib] + C[C@@H]1CCN(C(=O)CC#N)C[C@@H]1N(C)c1ncnc2[nH]ccc12 [CP690550] (first compound 0.2 µM, partner dose 1 µM), for which the cell count came out at 99.8% in the assay with WM115; 106% in the assay with WM1716; 98.6% in the assay on WM1745; 97.5% with WM3526; 117% in the assay with WM3619; 95.3% in the assay with WM451Lu.

Turning to `C=CCNC1=C2C[C@@H](C)C[C@H](OC)[C@H](O)[C@@H](C)/C=C(\C)[C@H](OC(N)=O)[C@@H](OC)/C=C\C=C(/C)C(=O)NC(=CC1=O)C2=O` [Tanespimycin] + COc1ccc(Cl)c(Nc2nc3ccccc3nc2NS(=O)(=O)c2cccc(NC(=O)C(C)(C)N)c2)c1 [XL147] (first compound 0.002 µM, partner dose 0.8 µM), the cell count in the assay with WM115 was 87.4%; in the assay on WM1716, 90.8%; with WM1745 it was 86.7%; with WM3526, 74.5%; in the assay on WM3619, 61.8%; in the assay with WM451Lu, 90.5%.

Turning to `CNC(=O)c1cc(Oc2ccc(NC(=O)Nc3ccc(Cl)c(C(F)(F)F)c3)cc2)ccn1` [sorafenib] + CCCS(=O)(=O)Nc1ccc(F)c(C(=O)c2c[nH]c3ncc(Cl)cc23)c1F [PLX4720] (first compound 0.4 µM, partner dose 0.08 µM), the cell count in the assay on WM115 came to 90.4%; with WM1716, 108%; with WM1745 it was 100%; in the assay with WM3526, 69.4%; in the assay on WM3619, 105%; in the assay with WM451Lu, 100%.

With `CN1CCN(c2ccc3nc(-c4c(N)c5c(F)cccc5[nH]c4=O)[nH]c3c2)CC1` [Dovitinib] + Cc1cc([N+](=O)[O-])ccc1NS(=O)(=O)c1cc(Cl)ccc1Cl [FH535] (first compound 0.1 µM, partner dose 1 µM), the cell count in the assay on WM115 was 79.4%; with WM1716, 115%; with WM1745 it was 86%; in the assay on WM3526 it was 83.1%; in the assay on WM3619, 126%; in the assay with WM451Lu, 99.2%.

Regarding `CN1CCN(c2ccc3nc(-c4c(N)c5c(F)cccc5[nH]c4=O)[nH]c3c2)CC1` [Dovitinib] + O=C(Nc1ccccc1)c1cc([N+](=O)[O-])ccc1Cl [GW9662] (first compound 0.1 µM, partner dose 2 µM), the cell count was 120% in the assay with WM115; 97% in the assay on WM1716; 90.3% with WM1745; 77.6% in the assay on WM3526; 114% in the assay on WM3619; 101% with WM451Lu.

With `C[C@@H](Oc1cc(-c2cnn(C3CCNCC3)c2)cnc1N)c1c(Cl)ccc(F)c1Cl` [Crizotinib] + CNC(=O)c1cc(Oc2ccc(NC(=O)Nc3ccc(Cl)c(C(F)(F)F)c3)cc2)ccn1 [sorafenib] (first compound 0.2 µM, partner dose 0.4 µM), the cell count with WM115 was found to be 98.3%; in the assay with WM1716 it was 117%; in the assay with WM1745, 90.3%; with WM3526, 117%; with WM3619, 96.9%; in the assay on WM451Lu, 110%.

As to `CN1CCN(c2ccc3nc(-c4c(N)c5c(F)cccc5[nH]c4=O)[nH]c3c2)CC1` [Dovitinib] + COc1cc2c(Oc3ccc4[nH]c(C)cc4c3F)ncnc2cc1OCCCN1CCCC1 [cediranib] (first compound 0.1 µM, partner dose 0.4 µM), the cell count in the assay on WM115 turned out to be 94.6%; with WM1716 it was 102%; with WM1745, 75.9%; in the assay on WM3526, 64.8%; in the assay with WM3619, 109%; in the assay on WM451Lu, 109%.

Consider `CNC(=O)c1cc(Oc2ccc(NC(=O)Nc3ccc(Cl)c(C(F)(F)F)c3)cc2)ccn1` [sorafenib] + C=CCn1c(=O)c2cnc(Nc3ccc(N4CCN(C)CC4)cc3)nc2n1-c1cccc(C(C)(C)O)n1 [MK1775] (first compound 0.4 µM, partner dose 0.02 µM), for which the cell count turned out to be 90.2% in the assay with WM115; 88.3% in the assay on WM1716; 93.7% in the assay with WM1745; 97.4% in the assay on WM3526; 71.4% in the assay on WM3619; 99.3% in the assay on WM451Lu.
